In article PMC8850586:
No constants are given. Whether binding was seen depends on the method and setting. For part of these data: Binding seen in cells or lysates may run through a third protein. Some binding calls cover weakened binding; strength is not graded here. For part of these data: Where a sequence is shown, tags or fusion partners need not be part of it. Blank lines part the entries; values can stand above or below the substance they belong to.

Amino acid sequences for entries named in this document (tags omitted). A change or cut given only in a name is not applied to a line headed by its entry.
UniProt P10644: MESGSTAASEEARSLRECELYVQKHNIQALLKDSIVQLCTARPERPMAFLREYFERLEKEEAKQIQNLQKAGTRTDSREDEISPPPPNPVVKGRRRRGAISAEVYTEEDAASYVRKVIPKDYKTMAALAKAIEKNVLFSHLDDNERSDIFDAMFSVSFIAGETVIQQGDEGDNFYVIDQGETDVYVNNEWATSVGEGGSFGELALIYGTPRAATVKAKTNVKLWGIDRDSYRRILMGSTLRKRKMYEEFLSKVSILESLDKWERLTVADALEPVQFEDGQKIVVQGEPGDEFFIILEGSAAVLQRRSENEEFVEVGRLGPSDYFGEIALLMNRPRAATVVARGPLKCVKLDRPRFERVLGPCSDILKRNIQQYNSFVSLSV
UniProt P49841: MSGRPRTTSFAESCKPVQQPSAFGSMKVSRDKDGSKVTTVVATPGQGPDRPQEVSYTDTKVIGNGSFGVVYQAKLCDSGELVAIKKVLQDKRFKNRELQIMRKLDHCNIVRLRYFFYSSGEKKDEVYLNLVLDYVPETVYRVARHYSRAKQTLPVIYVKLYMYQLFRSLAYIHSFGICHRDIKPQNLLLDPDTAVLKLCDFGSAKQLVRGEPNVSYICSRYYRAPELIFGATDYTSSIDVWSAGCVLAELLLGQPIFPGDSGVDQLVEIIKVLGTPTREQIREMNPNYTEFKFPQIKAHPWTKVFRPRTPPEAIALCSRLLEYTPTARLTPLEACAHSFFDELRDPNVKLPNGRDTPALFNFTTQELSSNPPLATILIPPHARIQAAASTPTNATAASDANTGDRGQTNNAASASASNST

Tests used:
[1] = biological target: T1, full length HK2, bait of the yeast two-hybrid screen (UniProt P27881); assay: two-hybrid; unbiased yeast two-hybrid screen with full length HK2 as bait
T1 sequence: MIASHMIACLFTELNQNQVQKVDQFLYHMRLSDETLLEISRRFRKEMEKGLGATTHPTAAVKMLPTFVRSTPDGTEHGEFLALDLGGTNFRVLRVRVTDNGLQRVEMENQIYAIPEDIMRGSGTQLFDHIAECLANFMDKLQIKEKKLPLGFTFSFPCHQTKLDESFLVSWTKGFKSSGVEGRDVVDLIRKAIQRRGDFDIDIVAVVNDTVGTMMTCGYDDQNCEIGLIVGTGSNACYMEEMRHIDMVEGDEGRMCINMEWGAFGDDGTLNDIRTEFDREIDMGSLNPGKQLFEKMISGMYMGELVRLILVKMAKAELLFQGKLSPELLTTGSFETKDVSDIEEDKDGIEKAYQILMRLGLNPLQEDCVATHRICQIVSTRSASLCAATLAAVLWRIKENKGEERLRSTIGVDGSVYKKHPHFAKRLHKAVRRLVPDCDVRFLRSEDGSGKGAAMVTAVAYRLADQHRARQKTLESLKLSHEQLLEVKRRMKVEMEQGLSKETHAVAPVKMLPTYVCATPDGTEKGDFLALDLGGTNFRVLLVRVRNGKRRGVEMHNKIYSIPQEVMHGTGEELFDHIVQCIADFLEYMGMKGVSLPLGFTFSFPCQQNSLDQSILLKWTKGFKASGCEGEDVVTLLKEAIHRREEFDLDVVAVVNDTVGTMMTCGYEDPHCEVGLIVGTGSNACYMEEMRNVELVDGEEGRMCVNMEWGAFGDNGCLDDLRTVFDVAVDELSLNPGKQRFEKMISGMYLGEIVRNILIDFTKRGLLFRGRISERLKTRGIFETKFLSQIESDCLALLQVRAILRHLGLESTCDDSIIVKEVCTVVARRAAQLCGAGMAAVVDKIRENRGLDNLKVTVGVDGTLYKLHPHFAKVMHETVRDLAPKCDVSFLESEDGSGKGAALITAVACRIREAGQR

[2] = biological target: T2, HA-tagged HK2 (rat hexokinase 2) stably expressed in HEK293 cells (rat) (UniProt P27881); assay: condition: only glucose replaced with 10 mM 2-DG for 2 h; co-IP; as a3, but glucose replaced with 10 mM 2-DG for 2 h
T2 sequence: T1 sequence

[3] = biological target: T2, HA-tagged HK2 (rat hexokinase 2) stably expressed in HEK293 cells (rat); assay: co-IP; HEK293-HK2-HA cells transfected with myc-GSK3β, 2 h in glucose-free medium with 10 mM glucose; HK2 immunoprecipitated (anti-HA), immunoblot with anti-myc-HRP and anti-PRKAR1a
[4] = biological target: T3, wild-type HK2 (catalytically active) expressed in MI5-4 CHO cells (rat) (UniProt P27881); assay: co-IP; MI5-4 CHO cells expressing HK2, without 2-DG (Supplementary Fig. 7c; its methods were not shown)
T3 sequence: T1 sequence

[5] = biological target: T2, HA-tagged HK2 (rat hexokinase 2) stably expressed in HEK293 cells (rat); assay: co-IP; as a3, but glucose replaced with 10 mM 2-DG for 2 h
His-HK2 = biological target: T4, His-HK2 (UniProt P52789); assay: ELISA; His-HK2 (50 nM) held on nickel-coated 8-well strips, then Myc-PRKAR1α (32 nM), PKAc (20 nM) and GST-GSK3β (32 nM) in turn, 1 h each at room temperature; bound proteins detected with antibodies; controls without His-HK2 or Myc-PRKAR1α; both purified
T4 sequence: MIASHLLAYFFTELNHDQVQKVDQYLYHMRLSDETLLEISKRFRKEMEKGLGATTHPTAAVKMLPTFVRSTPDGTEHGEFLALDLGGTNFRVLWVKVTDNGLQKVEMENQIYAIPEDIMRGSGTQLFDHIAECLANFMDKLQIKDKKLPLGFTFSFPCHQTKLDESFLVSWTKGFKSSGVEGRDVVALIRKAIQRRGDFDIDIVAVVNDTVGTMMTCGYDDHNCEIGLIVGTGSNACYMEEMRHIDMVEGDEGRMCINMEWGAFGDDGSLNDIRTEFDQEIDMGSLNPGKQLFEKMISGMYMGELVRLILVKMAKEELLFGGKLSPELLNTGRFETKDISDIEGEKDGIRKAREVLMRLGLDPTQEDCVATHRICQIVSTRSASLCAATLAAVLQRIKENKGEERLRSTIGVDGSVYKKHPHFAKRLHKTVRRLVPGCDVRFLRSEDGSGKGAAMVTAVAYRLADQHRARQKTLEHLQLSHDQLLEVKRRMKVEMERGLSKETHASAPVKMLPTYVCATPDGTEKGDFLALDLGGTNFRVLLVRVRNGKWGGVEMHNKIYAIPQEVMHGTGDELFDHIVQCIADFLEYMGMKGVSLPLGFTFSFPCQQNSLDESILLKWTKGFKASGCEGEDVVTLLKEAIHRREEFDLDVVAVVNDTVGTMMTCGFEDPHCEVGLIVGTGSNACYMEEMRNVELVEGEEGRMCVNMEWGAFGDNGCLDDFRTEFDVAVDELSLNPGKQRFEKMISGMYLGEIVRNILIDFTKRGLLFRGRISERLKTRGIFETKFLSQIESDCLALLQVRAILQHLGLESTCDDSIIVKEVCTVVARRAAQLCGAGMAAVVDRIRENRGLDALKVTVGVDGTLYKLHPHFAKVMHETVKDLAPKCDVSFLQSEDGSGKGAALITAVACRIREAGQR

[6] = biological target: T5, endogenous HK2 of HEK293 cells (human (endogenous in HEK293)) (UniProt P52789); assay: condition: only glucose replaced with 10 mM 2-DG for 2 h; co-IP; as a5, but glucose replaced with 10 mM 2-DG
T5 sequence: T4 sequence

[7] = biological target: T5, endogenous HK2 of HEK293 cells (human (endogenous in HEK293)); assay: co-IP; endogenous HK2 immunoprecipitated with anti-HK2 from HEK293 cells (Fig. 2f) or 4T1 cells (Supplementary Fig. 15c) kept 2 h with 10 mM glucose; immunoblot with anti-GSK3α/β
Myc-HK2 = biological target: T6, Myc-HK2 (UniProt P52789); assay: ELISA; His-PRKAR1a (50 nM) held on nickel-coated plates, then Myc-HK2 (32 nM, 2 h) or buffer, then GST-GSK3β (0-64 nM, 2 h); detected with anti-GST-HRP; G6P (0-1000 µM) added for the last 30 min in the inhibition panel; both purified
T6 sequence: T4 sequence

Substance: PRKAR1a fragment containing the first 129 amino acids (dimerization/docking domain) (from UniProt P10644 1-129) (domain or fragment)
binding [1]: binds

Substance: GSK3β in MI5-4 CHO cells (from UniProt P49841 1-420) (enzyme)
binding [4]: binds

Substance: GST-GSK3β (from UniProt P49841 1-420) (enzyme)
binding (Myc-HK2): binds
binding (His-HK2): binds

The remaining lines, values ahead:

binding [2]: no binding
binding [3]: binds
Substance: endogenous PRKAR1a of HEK293 cells (from UniProt P10644 1-381)

binding [5]: binds weakly
binding [2]: no binding
binding [3]: binds
Substance: myc-GSK3β (glycogen synthase kinase 3 beta), wild type (from UniProt P49841 1-420) (enzyme)

binding (His-HK2): binds
Substance: Myc-PRKAR1α (from UniProt P10644 1-381)

binding [6]: no binding
binding [7]: binds
Substance: endogenous GSK3β of HEK293 cells (from UniProt P49841 1-420) (enzyme)
